{"source": "paper PMC4599898", "assay_in_all_cases": "split reporter; split YFP BiFC in transiently transformed Arabidopsis protoplasts, 2 ug of each plasmid, incubated overnight; read by flow cytometry (at least three biological replicates, minimum 30,000 cells); each pair tested in both fusion conformations (SPN and SPC); positive where the normalized BiFC score lies above the threshold 0.01 in both conformations", "key": {"[1]": {"biological_target": "T1, GBF3 (Arabidopsis thaliana) (UniProt P42776)", "T1 sequence": "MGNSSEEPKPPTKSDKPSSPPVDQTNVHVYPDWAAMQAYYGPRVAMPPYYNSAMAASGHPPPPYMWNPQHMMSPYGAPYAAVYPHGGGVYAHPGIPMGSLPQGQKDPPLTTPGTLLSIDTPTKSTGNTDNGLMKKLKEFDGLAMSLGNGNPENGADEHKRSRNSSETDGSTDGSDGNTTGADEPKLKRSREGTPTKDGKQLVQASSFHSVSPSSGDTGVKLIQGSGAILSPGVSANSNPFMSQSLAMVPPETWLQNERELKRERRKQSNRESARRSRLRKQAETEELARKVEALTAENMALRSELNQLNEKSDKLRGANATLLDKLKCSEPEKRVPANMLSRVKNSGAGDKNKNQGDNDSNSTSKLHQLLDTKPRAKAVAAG"}, "[2]": {"biological_target": "T2, HyH (Arabidopsis thaliana) (UniProt Q8W191)", "T2 sequence": "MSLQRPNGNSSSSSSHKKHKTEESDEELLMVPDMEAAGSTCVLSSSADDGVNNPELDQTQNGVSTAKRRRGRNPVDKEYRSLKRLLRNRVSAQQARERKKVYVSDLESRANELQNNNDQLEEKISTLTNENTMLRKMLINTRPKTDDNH"}, "[3]": {"biological_target": "bZIP44 (Arabidopsis thaliana), C0Z2L5", "conditions": "remark: other sources report otherwise"}, "[4]": {"biological_target": "T3, bZIP2 (Arabidopsis thaliana), Q9SI15", "T3 chain": "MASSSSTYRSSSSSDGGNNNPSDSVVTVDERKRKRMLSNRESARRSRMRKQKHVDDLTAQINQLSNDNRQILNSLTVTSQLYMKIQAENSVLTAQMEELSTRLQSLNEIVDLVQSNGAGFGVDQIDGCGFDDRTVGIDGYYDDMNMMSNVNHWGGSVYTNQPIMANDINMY", "conditions": "remark: other sources report otherwise"}, "[5]": {"biological_target": "T4, bZIP53 (Arabidopsis thaliana), Q9LZP8", "T4 chain": "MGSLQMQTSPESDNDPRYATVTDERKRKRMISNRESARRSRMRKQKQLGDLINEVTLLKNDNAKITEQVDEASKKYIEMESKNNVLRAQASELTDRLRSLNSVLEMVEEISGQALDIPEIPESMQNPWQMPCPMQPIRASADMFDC", "conditions": "remark: other sources report otherwise"}, "[6]": {"biological_target": "T5, bZIP11 (Arabidopsis thaliana), O65683", "T5 chain": "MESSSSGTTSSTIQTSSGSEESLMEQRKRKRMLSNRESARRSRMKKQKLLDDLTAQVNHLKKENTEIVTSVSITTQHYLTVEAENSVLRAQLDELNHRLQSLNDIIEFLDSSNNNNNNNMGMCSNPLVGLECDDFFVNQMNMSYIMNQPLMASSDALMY", "conditions": "remark: other sources report otherwise"}, "[7]": {"biological_target": "T6, bZIP1 (Arabidopsis thaliana), Q9FGX2", "T6 chain": "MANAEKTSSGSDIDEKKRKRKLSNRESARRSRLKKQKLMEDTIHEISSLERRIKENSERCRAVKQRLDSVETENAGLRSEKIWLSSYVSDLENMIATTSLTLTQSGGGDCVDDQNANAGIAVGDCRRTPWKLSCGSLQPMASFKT", "conditions": "remark: other sources report otherwise"}}, "note": "No constants are given. Whether binding was seen depends on the method and setting. In cells and extracts the contact can be indirect. Some results given as binding are weak or reduced against the parent protein; the word gives no strength.", "data": [{"binder": "HyH (protein, UniProt Q8W191 1-149) MSLQRPNGNSSSSSSHKKHKTEESDEELLMVPDMEAAGSTCVLSSSADDGVNNPELDQTQNGVSTAKRRRGRNPVDKEYRSLKRLLRNRVSAQQARERKKVYVSDLESRANELQNNNDQLEEKISTLTNENTMLRKMLINTRPKTDDNH", "values": [{"measurement": "binding", "setting": "[1]", "value": "binds"}, {"measurement": "binding", "setting": "[2]", "value": "binds"}]}, {"binder": "bZIP9, Q9FUD3 1-277 (protein) MDNHTAKDIGMKRSASELALQEYLTTSPLDPCFDLMNRDYTCELRDSLLWSEGLFPAGPFRDAQSSICENLSADSPVSANKPEVRGGVRRTTSGSSHVNSDDEDAETEAGQSEMTNDPNDLKRIRRMNSNRESAKRSRRRKQEYLVDLETQVDSLKGDNSTLYKQLIDATQQFRSAGTNNRVLKSDVETLRVKVKLAEDLVARGSLTSSLNQLLQTHLSPPSHSISSLHYTGNTSPAITVHSDQSLFPGMTLSGQNSSPGLGNVSSEAVSCVSDIWP", "values": [{"measurement": "binding", "setting": "[3]", "value": "no binding"}, {"measurement": "binding", "setting": "[4]", "value": "no binding"}, {"measurement": "binding", "setting": "[5]", "value": "no binding"}, {"measurement": "binding", "setting": "[6]", "value": "no binding"}, {"measurement": "binding", "setting": "[7]", "value": "no binding"}]}]}
